From paper PMC6919601, “Identification of Plasmodium dipeptidyl aminopeptidase allosteric inhibitors by high throughput screening” (PLoS ONE, 2019)
Out of some 110,000 compounds screened, about 230 (0.21%) showed an effect of 50% or more. This is one part of the list.
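Also: 30 min substrate incubation versus DMSO and 10 µM JCP410 controls.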

These molecules were tested against DPAP1 (Plasmodium falciparum, UniProt Q8IIJ9) (assay: primary screen, percent inhibition; read by cleavage of a fluorogenic dipeptide substrate; higher = more effect of the substance).
DPAP1, sequence (Q8IIJ9 whole entry, looked up): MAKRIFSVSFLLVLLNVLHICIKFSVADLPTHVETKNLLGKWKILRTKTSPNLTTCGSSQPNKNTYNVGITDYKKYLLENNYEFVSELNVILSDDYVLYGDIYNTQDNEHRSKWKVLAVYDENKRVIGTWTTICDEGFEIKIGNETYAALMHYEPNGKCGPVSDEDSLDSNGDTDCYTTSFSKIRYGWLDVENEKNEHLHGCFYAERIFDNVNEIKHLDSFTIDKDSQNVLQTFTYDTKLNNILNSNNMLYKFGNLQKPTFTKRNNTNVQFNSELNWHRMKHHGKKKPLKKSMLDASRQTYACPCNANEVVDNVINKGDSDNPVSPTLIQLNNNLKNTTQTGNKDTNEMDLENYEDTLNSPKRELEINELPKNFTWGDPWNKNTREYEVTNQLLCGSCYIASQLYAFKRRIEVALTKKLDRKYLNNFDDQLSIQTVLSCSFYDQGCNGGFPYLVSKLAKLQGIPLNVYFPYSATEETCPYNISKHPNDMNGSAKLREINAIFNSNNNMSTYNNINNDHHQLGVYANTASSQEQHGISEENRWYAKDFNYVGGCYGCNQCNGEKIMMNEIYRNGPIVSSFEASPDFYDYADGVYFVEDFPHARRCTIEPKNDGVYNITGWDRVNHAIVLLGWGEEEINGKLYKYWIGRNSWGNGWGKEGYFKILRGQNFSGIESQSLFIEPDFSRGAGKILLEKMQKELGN
Set-up: species or system P. falciparum D10 trophozoite lysates; single well
For `O=C(N[C@H](/C=C/S(=O)(=O)c1ccccc1)CCc1ccccc1)[C@H](Cc1ccccc1)NC(=O)N1CCC(N2CCOCC2)CC1`, the “% Inhibition @ 10 uM” value was -4.72%. In the case of `CCOc1cc(C2C(C#N)=C(N)Oc3[nH]nc(-c4cccs4)c32)ccc1OC` (stereo not drawn), the “% Inhibition @ 10 uM” value is reported as 0.658%. For `C=CCNC(=O)/C=C/c1ccc(C(C)C)cc1`, the “% Inhibition @ 10 uM” value was -6.06%. In the case of `O=C(c1cc2ccccc2oc1=O)N(Cc1cccc(F)c1)C1CCS(=O)(=O)C1` (stereo not drawn), the “% Inhibition @ 10 uM” value is reported as -6.85%. For `CC(C)C[C@H](NC(=O)c1ccc(NC(=O)OC[C@H]2CCCN2C)cc1)C(=O)NCC#N`, the “% Inhibition @ 10 uM” value was 16%. With `CCCCSc1nc(N)c2c3c(sc2n1)CCCC3` the “% Inhibition @ 10 uM” value was -2.2%. For `CCc1c(O)nc(SCC(=O)N(CC)CC)n(C2CCCCC2)c1=O`, the “% Inhibition @ 10 uM” value was -0.292%. With `O=C(/C=C/c1ccc2c(c1)OCO2)Nc1cccc(C(F)(F)F)c1` the “% Inhibition @ 10 uM” value was 4.54%. `COc1ccc(-c2nc3ccccn3c2NC(=O)C(C)C)cc1` was tested, and the “% Inhibition @ 10 uM” value was 2.17%. With `CCc1ccc(S(=O)(=O)c2nnn3c2nc(NCc2ccccc2)c2sccc23)cc1` the “% Inhibition @ 10 uM” value was -5.88%. With `Cc1ccc(C(=O)Nc2ccc(Oc3ccc(C(=O)O)c(C(=O)O)c3)cc2)cc1C` the “% Inhibition @ 10 uM” value was -2.05%. `CCC(C)(C)C1CCC2(CC1)NC(CO)(CO)CO2` (stereo not drawn) was tested, and the “% Inhibition @ 10 uM” value was -1.1%. For `Cc1cc(NC(=O)c2ccc(N3C(=O)C4C5C=CC(C5)C4C3=O)cc2)no1` (stereo not drawn), the “% Inhibition @ 10 uM” value was 13.9%. For `CCO/C(O)=C1/C(C)=Nc2nc(C)nn2C1c1ccc(C)cc1` (stereo not drawn), the “% Inhibition @ 10 uM” value was -4.66%. With `Cc1ccc2c(C(=O)CNc3nncs3)c(C)[nH]c2c1` the “% Inhibition @ 10 uM” value was 0.146%. For `CC(=O)OCC12COC(c3ccccc3)C(C(C)=CC1C)C2C` (stereo not drawn), the “% Inhibition @ 10 uM” value was 0.565%. `Cc1cc(C)c2c(cnn2CC(=O)N2CCCCC2)c1` was tested, and the “% Inhibition @ 10 uM” value was -4.71%. In the case of `N=C(NOS(=O)(=O)c1ccc(Cl)cc1)c1ccccn1`, the “% Inhibition @ 10 uM” value is reported as 1.63%. With `CCCOc1ccc(C(=O)C2=C(O)C(=O)N(CCCN3CCOCC3)C2c2ccc(F)cc2)cc1C` (stereo not drawn) the “% Inhibition @ 10 uM” value was -3.75%. With `O=C1N=C(N2CCCCC2)CN1c1ccccc1` the “% Inhibition @ 10 uM” value was -4.35%. `Cc1nn2c(O)cc(-c3ccccc3)nc2c1-c1ccccc1` was tested, and the “% Inhibition @ 10 uM” value was -4.78%. For `Cc1ccccc1C1CC(=O)NC(SCC(=O)NCc2ccccc2)=C1C#N` (stereo not drawn), the “% Inhibition @ 10 uM” value was -2.37%. With `CC1(C)Cc2ccccc2/C(=C/C(=O)N2CCCCCC2)N1` the “% Inhibition @ 10 uM” value was 16.9%. With `CN1CCC(N(C)Cc2ccc3c(c2)OCO3)CC1` the “% Inhibition @ 10 uM” value was 2.03%. For `CCCCC(=O)NC1(C(F)(F)F)C(=O)Nc2c1c(=O)[nH]c(=O)n2Cc1ccco1` (stereo not drawn), the “% Inhibition @ 10 uM” value was 3.99%. For `CCN(CC)CCCNC(=O)c1ccc(OC)cc1`, the “% Inhibition @ 10 uM” value was -3.16%. For `COCCCNC(=O)c1cc2cc3cc(OC)ccc3nc2o1`, the “% Inhibition @ 10 uM” value was 0.208%.
